Experimental data published in publication PMC4336329 (PLoS ONE, 2015).
Among all 310,000 compounds or so, about 14,000 (4.5%) showed an effect of 50% or more. Effects have a minus sign here. Some of the results follow.

The molecules below were run against human ether-à-go-go-related gene (hERG) potassium channel (human, UniProt Q12809) (assay: primary screen, population patch clamp on CHO cells stably expressing hERG).
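Further: peak tail current of the secondary pulse compared with the same well before compound.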

human ether-à-go-go-related gene (hERG) potassium channel, sequence (Q12809 whole entry, looked up): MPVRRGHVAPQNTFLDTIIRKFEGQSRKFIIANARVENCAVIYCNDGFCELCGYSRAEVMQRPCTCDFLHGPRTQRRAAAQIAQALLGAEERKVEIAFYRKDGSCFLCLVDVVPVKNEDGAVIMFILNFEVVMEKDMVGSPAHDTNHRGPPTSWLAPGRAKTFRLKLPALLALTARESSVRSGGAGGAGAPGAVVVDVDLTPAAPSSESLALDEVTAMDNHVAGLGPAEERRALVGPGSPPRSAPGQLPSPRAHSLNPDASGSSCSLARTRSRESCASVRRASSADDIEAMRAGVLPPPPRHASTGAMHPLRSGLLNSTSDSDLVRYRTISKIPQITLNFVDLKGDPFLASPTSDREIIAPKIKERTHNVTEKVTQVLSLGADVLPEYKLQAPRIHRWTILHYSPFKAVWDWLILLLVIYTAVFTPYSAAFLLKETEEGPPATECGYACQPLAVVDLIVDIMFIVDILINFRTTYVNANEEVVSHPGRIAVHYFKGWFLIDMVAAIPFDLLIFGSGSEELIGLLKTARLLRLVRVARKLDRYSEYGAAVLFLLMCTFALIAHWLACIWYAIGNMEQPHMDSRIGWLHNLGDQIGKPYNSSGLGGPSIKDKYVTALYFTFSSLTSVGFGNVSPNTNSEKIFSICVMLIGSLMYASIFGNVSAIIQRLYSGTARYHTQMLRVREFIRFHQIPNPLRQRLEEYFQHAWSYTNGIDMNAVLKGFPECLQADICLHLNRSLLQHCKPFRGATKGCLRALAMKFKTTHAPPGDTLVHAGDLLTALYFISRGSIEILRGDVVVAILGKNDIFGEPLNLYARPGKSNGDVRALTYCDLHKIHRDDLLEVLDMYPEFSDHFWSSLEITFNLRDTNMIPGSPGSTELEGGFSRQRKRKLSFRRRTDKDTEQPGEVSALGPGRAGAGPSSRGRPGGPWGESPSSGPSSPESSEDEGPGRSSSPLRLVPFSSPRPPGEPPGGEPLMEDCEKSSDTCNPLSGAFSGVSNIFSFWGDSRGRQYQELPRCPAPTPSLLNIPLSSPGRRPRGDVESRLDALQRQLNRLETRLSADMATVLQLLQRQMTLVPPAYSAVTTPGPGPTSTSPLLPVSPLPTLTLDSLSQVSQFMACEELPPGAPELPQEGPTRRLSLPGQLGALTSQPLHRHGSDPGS

Row | Structure (SMILES) | hERG current change (%, negative = inhibition) at 10uM
1 | CC(=O)c1csc(COc2ccc(Cl)cc2)n1 | 11.9%
2 | Cc1ccc(CSCC(=O)Nc2ccc3c(c2)OCO3)cc1 | -14.5%
3 | CC(=O)c1ccc(-c2ccc(C(=O)N3CCC(C(N)=O)CC3)o2)cc1 | -5.3%
4 | Cc1ccc(OC(=O)c2ccc(C)c([N+](=O)[O-])c2)cn1 | 20.9%
5 | COC(=O)c1ccc(-n2cncn2)c(F)c1 | 8.06%
6 | COc1ccccc1NC(=O)CN1CCOCC1 | 15.7%
7 | CCOCCn1cnc2sc(C(=O)NCC(=O)OCC)c(C)c2c1=O | -3.75%
8 | CCOc1cccc2sc(N(CCN(C)C)C(=O)/C=C/c3cccs3)nc12.Cl | -40.7%
9 | O=C(COC(=O)/C=C/c1cccc(C(F)(F)F)c1)NC1CCCCCC1 | -0.0149%
10 | O=C(O)c1cc(-c2ccncc2)nc2ccc(S(=O)(=O)N3CCOCC3)cc12 | 6.02%
11 | CCOC(=O)CN1CC23C=CC(O2)C(C(=O)NC2CCCC2)C3C1=O (centres unmarked) | 2.55%
12 | CCC(C)(C)C1CCc2c(sc(NC(=O)c3cccs3)c2C(N)=O)C1 (centres unmarked) | 17.3%
13 | O=C(CN1CCN(Cc2ccccc2)CC1)N/N=C/C=C/c1ccccc1[N+](=O)[O-] | -74.2%
14 | C=C(C)c1ccc(C(C)(C)NC(=O)NCc2ccco2)cc1 | -5.58%
15 | Cc1c(C=O)c2ccccn2c1C(=O)c1ccncc1 | -12.7%
16 | COc1ccc(NC(=O)C(F)(F)F)cc1OC | 15.1%
17 | CCOc1ccc(CSC2=NCCN2)cc1Cl.Cl | -50.9%
18 | CC(C)SCC(=O)Nc1ncc2c(n1)-c1ccccc1CC2 | 7.72%
19 | Cc1cc(=O)[nH]c(SCCCOc2ccc(F)cc2)n1 | -10.3%
20 | CN1C(=O)C2(NCCc3c2[nH]c2ccccc32)c2ccccc21 (centres unmarked) | 11%

Row | Structure (SMILES) | hERG current change (%, negative = inhibition) at 10uM
21 | CNC(=S)N1N=C(c2ccc(C)cc2)CC1c1cc(OC)ccc1OC (centres unmarked) | 6.63%
22 | Cc1ccc(S(=O)(=O)c2ncccc2[N+](=O)[O-])cc1 | -64%
23 | COC(=O)c1c(C)[nH]c(C(=O)COC(=O)c2c(C)noc2C)c1C | 8.44%
24 | COc1ccc(Nc2nc(C)cc(C)c2C#N)cc1 | 12.4%
25 | N=C1C(c2ccccc2)=C(O)CN1NC(=O)c1ccc(Cl)cc1 | 15.3%
26 | COc1ccccc1NC(=S)NC(=O)CCc1ccccc1 | 1.83%
27 | O=C(NC(=S)Nc1cccnc1Cl)c1ccc(F)cc1 | 15.3%
28 | COc1ccc(-n2c(=O)cc(N3CCc4ccccc43)[nH]c2=O)cc1 | -0.92%
29 | COc1ccccc1-n1nc(C)c(-c2ccccc2)c1N | 23%
30 | O=c1c(Sc2ccccc2)c(C(F)(F)F)[nH]n1-c1ccccc1 | 22.4%
31 | Cn1cc(Cl)cc(C(=O)Nc2ccccc2)c1=O | 15.2%
32 | Cc1nc2c(C(=O)NCc3cccs3)cnn2c(C)c1Cc1ccccc1 | 19.5%
33 | COc1cc(-c2noc(CCCC(=O)NC3CCCCC3)n2)cc(OC)c1OC | -4.29%
34 | O=C(NNC(=O)c1cc(-c2ccccc2Cl)nc2ccccc12)c1csc(N2CCOCC2)n1 | -17.1%
35 | CN(C)C(=O)Oc1ccc(Cl)c2ccccc12 | 3.97%
36 | O=C(N/N=C/c1ccncc1)C12CC3CC(CC(C3)C1)C2 | -5.53%
37 | Nc1nc(-c2ccccc2)c(N=Nc2cccnc2)s1 | 21.6%
38 | Cl.OC(COCc1ccc2c(c1)OCO2)CN1CCC(Cc2ccccc2)CC1 (centres unmarked) | -87.6%
39 | COc1ccc(C)cc1NC(=S)NN1CCN(C)CC1 | 22.1%
40 | CCC1=C(C)CN(C(=O)NCCc2ccc(S(=O)(=O)NC(=O)NC3CCC(C)CC3)cc2)C1=O (centres unmarked) | -13.5%

Row | Structure (SMILES) | hERG current change (%, negative = inhibition) at 10uM
41 | O=C(NC(=S)NCc1ccco1)c1ccc(Br)cc1 | 13.2%
42 | Cc1cc(C)n(/N=C/c2cccc(O)c2)c(=O)c1C(N)=O | 4.31%
43 | COc1cc(CC(=O)OCC(=O)NC2CCCCC2C)cc(OC)c1OC (centres unmarked) | 2.43%
44 | COc1ccc(-c2ccc(SCC(=O)N3c4ccccc4CC3C)nn2)cc1OC (centres unmarked) | -4.75%
45 | COc1ccc(-c2cncnc2-c2ccc(OC)cc2O)cc1 | 7.35%
46 | O=C(Oc1ccc(F)cc1C(=O)/C=C/c1cccs1)c1cccc([N+](=O)[O-])c1 | 17.3%
47 | O=C(Nn1cnnc1)C(Sc1ccccc1)c1ccccc1 (centres unmarked) | 9.55%
48 | COc1cc(/C=C2/C(=O)N(c3ccc(C)c(C)c3)N=C2C)cc([N+](=O)[O-])c1O | 0.685%
49 | COc1ccc(CSCCc2n[nH]c(=S)n2-c2ccccc2)cc1 | 20.1%
50 | COC(=O)c1ccc(NS(=O)(=O)c2cc3c4c(c2)C(C)C(=O)N4CCC3)cc1 (centres unmarked) | 2.73%
51 | O=C1CC(N2CCN(c3ccc(F)cc3)CC2)C(=O)N1Cc1ccccc1 (centres unmarked) | -17.6%
52 | CCCc1ccc(C(=O)NNC(=O)c2ccc(Br)cc2)cc1 | 9%
53 | CCc1ccc(N(CC)c2ncnc3nc[nH]c23)cc1 | -4.89%
54 | COc1ccc2c(c1)c(=O)c(C(=O)c1ccc(Cl)cc1)cn2CC(=O)Nc1ccc(F)cc1 | 12.4%
55 | CC(NC1=NCCS1)c1ccccc1 (centres unmarked) | 9.37%
56 | Cc1[nH]n(-c2ccccc2)c(=O)c1N=Nc1cccc(S(=O)(=O)N2CCOCC2)c1 | 5.49%
57 | COC(=O)c1ccc(-n2nnnc2SCc2ccccc2OC)cc1 | -6.11%
58 | O=C(OC(c1ccccc1)c1nccc2ccccc12)c1cccc([N+](=O)[O-])c1 (centres unmarked) | 8.01%
59 | COc1ccc(CN2CCNC(=O)C2CC(=O)NCc2cccc(C)n2)c(OC)c1 (centres unmarked) | 6.54%
